Measurements taken from the supplement of paper PMC11417369.
The other results are listed elsewhere or left out.

Tested on: PfAP2-HC AP2 domain (GST-tagged)
Test: gcPBM binding intensity (ln(normalized median fluorescence intensity)); higher = stronger DNA binding
In short: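 Alexa488 anti-GST antibody, scanned at 488 nm, detected GST-tagged P. falciparum DNA-binding domains that had been expressed in E. coli and incubated for 1 h on an Agilent 4 × 180k array. The array carried primer-extended double-stranded 36-bp intergenic genomic probes and negative controls. Binding intensity is the highest Masliner-normalised natural-log median intensity across replicate spots of either orientation of each probe.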

Row | Sequence | gcPBM binding intensity (ln)
1 | TTTAAGATTTTGTAATGTACATATATACATATATAT [XGTACX_site399] | 9.75
2 | AGGTGAATATTTTTTACACACATAAAAAAAATATAT [CACACA_site57] | 9.82
3 | TATATATTATATATGTGTACTCACTAACAAAAATTA [XGTACX_site6285] | 9.52
4 | AAATTATATAAAGGAACACACATTTTATTTTATTTT [CACACA_site1500] | 9.7
5 | TATATTTTTATAATAACACACGATATATGTTTAGGA [CACACA_site1283] | 9.63
6 | AATGACTACATAATAGTGCAATATTAAAGAAAATTA | 9.68
7 | TGTATATCATAAGATGGTACACGTGTGTGCGTATGC [XGTACX_site2255] | 10
8 | ATTCTTAAAAAAAAATGTACACATGAACAATATGTA [XGTACX_site362] | 9.52
9 | AATCAAAATTCATTAACACACAATTTTAATATTCTT [CACACA_site5178] | 9.7
10 | TTTTTTAAAATATGGACACACATATATATATATGTA [CACACA_site2784] | 9.5
11 | TATTTTTATAAGAGCATGCACTGTTTAAAATGGTAT | 9.5
12 | TTTTGATATAAAAAAAGTACATTAATAATATTAATT [XGTACX_site4248] | 9.33
13 | CAGTATTCTTCTATATGTACTTATTTAAATATTCTT [XGTACX_site7555] | 9.8
14 | TAAATAATAATAAATGTGCACAGGTATTAACAAAAA [GTGCAC_site9988] | 10
15 | ATGATATGGATAAATACACACAATAAAATAATGTCT [CACACA_site6786] | 9.8
16 | TTTATTTATTTATGTTGTACAAGTTTATACTGGAAT [XGTACX_site6479] | 9.63
17 | TTTTAACAAAACAAAACAAAATAATATAAAGATAAC [TGCATGCA_negctrl_site154] | 9.77
18 | TTTTTTTTTTTTTTTTTTTGATTCTTATAAAAATTT [GTGCAC_negctrl_site240] | 8.56
19 | AGGTCACATTTGTCCTCACACATAGATAAATATATA [CACACA_site5460] | 9.65

Row | Sequence | gcPBM binding intensity (ln)
20 | AATTAGCATTAAAAATGTACAAAAGAAAAAAATATA [XGTACX_site3816] | 9.83
21 | GTCAAAAATAATATATGTACTTATAATAGATAAATG [XGTACX_site7755] | 9.6
22 | ATAATTTGATCAATTTTTCATTTTTCATTTTTTTAA [CACACA_negctrl_site1252] | 9.56
23 | TTAACATATGACATTTTTTCACCCTTCCTTTATTTT [CACACA_negctrl_site1192] | 9.8
24 | ATAAAATCATTCAATGGTACAGAAATACAAAATGTA [XGTACX_site6739] | 9.76
25 | TATGTATAAAAATATTGTACATATTATATATATATA [XGTACX_site2947] | 9.42
26 | TAAAATTTAAAAAGGTGTACACTATAAATTAAAATA [XGTACX_site2081] | 9.71
27 | AGAAAGAATGAAAAATGTACATATATGTAATAGCTA [XGTACX_site364] | 9.97
28 | TTCTTTCTGTTTTATTTATAATAATTTATGATAAAA [CACACA_negctrl_site766] | 9.6
29 | TGTTTTTAATTTCGCACACACCTTGTGGAAAAAAAA [CACACA_site4482] | 9.85
30 | ATACGTGGGCAAAAAGTGCATATAATCAAAAAAAAA [GTGCAC_site9961] | 9.69
31 | ATATATATATTTGTATGTACATATCATATTGTGTGT [XGTACX_site1580] | 10.2
32 | AAGATATTTGAATATACACACGATTTAAATTTAATA [CACACA_site3866] | 9.67
33 | GTATAACTTTTGCGCGTACACACATTTATCCTCTTT [CACACA_site208] | 10.7
34 | ACGTATAATATGTACACACACATATATACAAAAAAA [CACACA_site917] | 10
35 | TTTCTTTTTTTATAATCCACATTGGGAAAATCAAAA [TGCATGCA_negctrl_site159] | 9.19
36 | AAAGTTGTTACGAACATACACACGAACATACTCACG [CACACA_site604] | 10
37 | TAGAATATCCCCTACACACCCAAATAATTTACAAAT [CACACA_site4825] | 9.86
38 | AAAATATTTATTACTTCACACATTATTGTATTTATA [CACACA_site5082] | 9.77

Row | Sequence | gcPBM binding intensity (ln)
39 | CATATATTATTATATGCACACATGAAAATATACAAA [CACACA_site2795] | 9.83
40 | TTGAAATATACGTAAGTAAATTTCATTTGGTTGTGT [XGTACX_negctrl_site600] | 9.75
41 | GTATTATATATATAGGTGCATATATATATATAAATA [GTGCAC_site9787] | 9.62
42 | AAATATAAAGGATTAATATTATATATATATATATAT [XGTACX_negctrl_site211] | 9.6
43 | GTTTGGTGGTGTTTTGGTACGTACGGGGGGGTATGT [XGTACX_site1983] | 10.5
44 | TTTTTTTTTTTTTATTGTACTTATTTTTTTATGTTT [XGTACX_site7725] | 9.86
45 | TATGTATTTTTATGCACACATGCGTGGCTTATATAA [CACACA_site387] | 9.79
46 | ATATTTTCTTTAAATTGTACATATTGTGATACAAAA [XGTACX_site5886] | 9.27
47 | ATTTTTTTTTTTTTTTTTTTTTTGTTTATACAAAAT [CACACA_negctrl_site1241] | 9.33
48 | TTTCATTTAGCTTTTACACACTATATATTATTGATT [CACACA_site16] | 9.9
49 | TATATACATACATGTAGTACCTAATTCGGTCCCGTA [XGTACX_site2702] | 9.56
50 | ACACATACATATACATACACATTGTTTTCATGCATC [XGTACX_negctrl_site126] | 10.2
51 | TATATGTGTCTACAGGTGCATATATCATATATTGCT | 9.62
52 | TAAATAAATTTATACACACACACACGGATATAAATA [CACACA_site6532] | 10.6
53 | TATAAATATTTATACACACACATATATTTATATATC [CACACA_site6366] | 10.2
54 | TTGCATTTTCTAGTAACACACAATTAGCGTTGCTGT [CACACA_site3594] | 10
55 | TATAGAAGCATTCACACACACACATACATACACATA [CACACA_site1466] | 10.6
56 | TAACAAAAAGGGAACACATGCGCTCTTTATTTATTT [TGCATGCA_site620] | 9.79
57 | ATAATATTAATATGTACACACCTTAATCCTTAAAAG [CACACA_site7640] | 9.72
